In the supplement of paper PMC6089552:
Screen size: about 3,200 compounds; about 300 (9.4%) showed activity. The entries are a selection whose mix differs from that of the whole data set.

Tested on: A673/TR/shEF
Assay: cell viability (LOESS-normalised, relative to median of negative controls) (log2 ratio); higher = more viable cells (less compound effect), active = hit call of the paper (over 3 MAD below the median)
Conditions: treatment time: 72 h
Method in brief: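 A673/TR/shEF Ewing sarcoma cells (1,500 per well, 384-well plates) were grown with or without doxycycline to induce EWS-FLI1 shRNA knockdown, starting 24 h before compounds. Library compounds at two or more concentrations, with DMSO controls, were added for three days. Cell viability was read by CellTiter-Glo luminescence on an Envision reader, then LOESS-corrected per plate, divided by the median of negative controls and log2-transformed. Hits were wells at least three median absolute deviations from the median of all screened wells.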

[1] = 0.25 µM, library screen: screen2, EWS-FLI1 expression: high (no doxycycline)
[2] = 0.25 µM, library screen: screen2, EWS-FLI1 expression: low (doxycycline-induced shRNA knockdown)
[3] = 2.5 µM, library screen: screen2, EWS-FLI1 expression: high (no doxycycline)
[4] = 2.5 µM, library screen: screen2, EWS-FLI1 expression: low (doxycycline-induced shRNA knockdown)
[5] = 0.103 µM, library screen: screen3, EWS-FLI1 expression: high (no doxycycline)
[6] = 0.103 µM, library screen: screen3, EWS-FLI1 expression: low (doxycycline-induced shRNA knockdown)
[7] = 0.25 µM, library screen: screen1, EWS-FLI1 expression: high (no doxycycline)
[8] = 0.25 µM, library screen: screen1, EWS-FLI1 expression: low (doxycycline-induced shRNA knockdown)
[9] = 0.308 µM, library screen: screen3, EWS-FLI1 expression: high (no doxycycline)
[10] = 0.308 µM, library screen: screen3, EWS-FLI1 expression: low (doxycycline-induced shRNA knockdown)
[11] = 0.926 µM, library screen: screen3, EWS-FLI1 expression: high (no doxycycline)
[12] = 0.926 µM, library screen: screen3, EWS-FLI1 expression: low (doxycycline-induced shRNA knockdown)
[13] = 2.5 µM, library screen: screen1, EWS-FLI1 expression: high (no doxycycline)
[14] = 2.5 µM, library screen: screen1, EWS-FLI1 expression: low (doxycycline-induced shRNA knockdown)
[15] = 2.8 µM, library screen: screen3, EWS-FLI1 expression: high (no doxycycline)
[16] = 2.8 µM, library screen: screen3, EWS-FLI1 expression: low (doxycycline-induced shRNA knockdown)
[17] = 8.3 µM, library screen: screen3, EWS-FLI1 expression: high (no doxycycline)
[18] = 8.3 µM, library screen: screen3, EWS-FLI1 expression: low (doxycycline-induced shRNA knockdown)
[19] = 25 µM, library screen: screen3, EWS-FLI1 expression: high (no doxycycline)
[20] = 25 µM, library screen: screen3, EWS-FLI1 expression: low (doxycycline-induced shRNA knockdown)
[21] = 25 µM, library screen: screen1, EWS-FLI1 expression: high (no doxycycline)

Measured: cell viability (log2)

CN1C2CCC1CC(NC(=O)c1nn(C)c3ccccc13)C2 (stereo not given)
inactive: [1] 0.132 | [2] 0.139 | [3] 0.11 | [4] 0.144

O=c1[nH]c(=O)n([C@H]2C[C@H](O)[C@@H](CO)O2)cc1C(F)(F)F
active: [19] -0.362
inactive: [5] 0.105 | [6] 0.105 | [7] -0.0346 | [8] 0.0988 | [9] 0.134 | [10] 0.147 | [11] 0.108 | [12] 0.0588 | [13] 0.0509 | [14] 0.029 | [15] 0.0746 | [16] 0.0921 | [17] 0.0584 | [18] 0.048 | [20] 0.124

CN(C)c1nc(N)c(C(=O)N=C(N)N)nc1Cl
inactive: [7] 0.143 | [8] 0.142 | [1] 0.176 | [2] 0.0717 | [13] 0.211 | [14] 0.0791 | [3] 0.0397 | [4] 0.108

C=C(C)C1CC=C(C(=O)O)CC1 (stereo not given)
inactive: [7] 0.112 | [8] 0.0449 | [1] 0.18 | [2] 0.164 | [13] 0.0814 | [14] 0.1 | [3] 0.193 | [4] 0.204

c1cc(CN2CCCNCCNCCCNCC2)ccc1CN1CCCNCCNCCCNCC1
inactive: [5] 0.00595 | [6] 0.0496 | [9] 0.0705 | [10] 0.00482 | [11] 0.086 | [12] 0.0433 | [15] 0.0246 | [16] 0.0244 | [17] 0.0572 | [18] 0.0352 | [19] 0.0828 | [20] 0.0617

CN(C)CC[C@@H](c1ccc(Br)cc1)c1ccccn1
inactive: [1] 0.106 | [2] 0.0903 | [3] 0.0852 | [4] 0.0735

C[C@]12CCC3c4ccc(OS(=O)(=O)O)cc4CCC3C1CC[C@H]2O (stereo not given in full)
inactive: [7] 0.0646 | [8] 0.0512 | [13] 0.0988 | [14] 0.092

O=c1[nH]c2cc(Cl)c(Cl)cc2[nH]c1=O
inactive: [7] 0.152 | [8] 0.0361 | [1] 0.108 | [2] 0.0219 | [13] 0.108 | [14] 0.0376 | [3] 0.116 | [4] 0.019

CC(C)[C@@H]1CC[C@@H](C)CC1=O
inactive: [7] 0.057 | [8] 0.0478 | [13] 0.148 | [14] 0.0792

NCCCCN
inactive: [7] 0.145 | [8] 0.0277 | [1] 0.211 | [2] 0.0563 | [13] 0.065 | [14] -0.0367 | [3] 0.309 | [4] 0.0767

CC1=CC2C(CC1=O)C(C)=CCC2C(C)C (stereo not given)
inactive: [7] 0.101 | [8] 0.0137 | [13] 0.074 | [14] 0.156

O=C(O)c1cc(NCc2cc(O)ccc2O)ccc1O
active: [13] -0.24 | [21] -0.388

CCCCCCCCNC(C)C(O)c1ccc(SC(C)C)cc1 (stereo not given)
inactive: [7] 0.0351 | [8] 0.122 | [13] 0.124 | [14] 0.202

C[C@H]1O[C@@H](O[C@H]2[C@@H](O)C[C@H](O[C@H]3[C@@H](O)C[C@H](O[C@H]4CC[C@@]5(C)[C@H](CC[C@@H]6[C@@H]5CC[C@]5(C)[C@@H](C7=CC(=O)OC7)CC[C@]65O)C4)O[C@@H]3C)O[C@@H]2C)C[C@H](O)[C@@H]1O
active: [7] -2.45 | [8] -2.04 | [13] -3.94 | [14] -4.23

COc1cc2c(cc1OC)[C@@H]1C(=O)c3ccc4c(c3O[C@@H]1CO2)C=CC(C)(C)O4
active: [7] -0.591 | [8] -0.253 | [13] -2.11 | [14] -0.84

COc1cc(C2NC(=O)NC(C)=C2C(=O)Nc2cccc(Cl)c2)cc(OC)c1OC (stereo not given)
inactive: [7] 0.0796 | [8] 0.0843 | [13] 0.0754 | [14] -0.0585

Cc1cccc(Nc2ccncc2S(=O)(=O)NC(=O)NC(C)C)c1
inactive: [5] 0.0396 | [6] -0.0451 | [9] 0.0502 | [10] 0.0231 | [11] 0.0381 | [12] 0.0245 | [15] 0.0609 | [16] 0.00717 | [17] 0.0545 | [18] 0.0436 | [19] 0.106 | [20] 0.111

CC(=O)O[C@@H]1CC[C@@]2(C)C(C[C@@H](OC(C)=O)[C@@]3(C)C4=CC(=O)O[C@@H](c5ccoc5)[C@]4(C)CCC23)C1(C)C (stereo not given in full)
inactive: [7] -0.00795 | [8] 0.0487 | [13] 0.121 | [14] 0.0464

O=C(O)CCCC[C@@H]1CCSS1
inactive: [1] 0.146 | [2] 0.0722 | [3] 0.201 | [4] 0.0443

CC(=O)O[C@H]1C[C@@H](O)C(C)(C)[C@@H]2C[C@@H](OC(C)=O)[C@]3(C)[C@H](CC[C@@]4(C)[C@@H](c5ccoc5)OC(=O)[C@H]5O[C@@]534)[C@@]12C
inactive: [7] 0.0499 | [8] 0.125 | [13] 0.125 | [14] 0.111

Cc1cc(O)c(C)c2c1C(=O)Oc1c(C)c(O)c(C(=O)O)c(C)c1O2
inactive: [7] 0.09 | [8] 0.103 | [13] 0.0454 | [14] 0.145

O=C1Nc2ccc(I)cc2/C1=C/c1cc(Br)c(O)c(Br)c1
inactive: 0.025 µM, library screen: screen1, EWS-FLI1 expression: high (no doxycycline) 0.115 | 0.025 µM, library screen: screen1, EWS-FLI1 expression: low (doxycycline-induced shRNA knockdown) -0.011 | [7] 0.134 | [8] -0.0458 | [1] 0.275 | [2] 0.0983 | [13] 0.0489 | [14] 0.0445 | [3] 0.0633 | [4] 0.123 | [21] -0.0847 | 25 µM, library screen: screen1, EWS-FLI1 expression: low (doxycycline-induced shRNA knockdown) 0.107

COc1cc(NS(=O)(=O)c2ccc(N)cc2)nc(OC)n1
inactive: [7] 0.0282 | [8] -0.0293 | [13] 0.153 | [14] 0.0706

C=N[C@@H](C(=O)N[C@@H]1C(=O)N2[C@@H]1SC(C)(C)[C@@H]2C(=O)O)c1ccccc1
inactive: [7] 0.0691 | [8] 0.129 | [13] 0.137 | [14] 0.108

CC1(C)O[C@@H]2[C@@H](CO[C@@]3(COS(N)(=O)=O)OC(C)(C)O[C@@H]23)O1
inactive: [5] 0.0446 | [6] 0.0518 | [9] 0.131 | [10] 0.0753 | [11] -0.0108 | [12] 0.141 | [15] 0.0703 | [16] 0.0655 | [17] 0.0296 | [18] 0.0661 | [19] 0.175 | [20] 0.0273

COc1cc2ccc(=O)oc2cc1O
inactive: [7] 0.00519 | [8] -0.0513 | [13] 0.0452 | [14] 0.0897

CC(C)Cn1cnc2c(N)nc3ccccc3c21
inactive: [5] 0.182 | [6] 0.0724 | [9] 0.178 | [10] 0.0451 | [11] 0.11 | [12] 0.0767 | [15] 0.106 | [16] 0.0301 | [17] 0.107 | [18] 0.0861 | [19] 0.124 | [20] 0.115

CC(=O)OCC(=O)[C@@]1(O)[C@H](OC(C)=O)C[C@H]2[C@@H]3CCC4=CC(=O)C=C[C@]4(C)[C@@]3(F)[C@@H](O)C[C@@]21C
inactive: [7] 0.15 | [8] 0.106 | [13] 0.0924 | [14] -0.0304

NC(=O)N1c2ccccc2CC(=O)c2ccccc21
inactive: [7] 0.13 | [8] 0.0766 | [13] 0.178 | [14] 0.0711

Cc1nnc(SCC(=O)N2c3cc(C)c(C)cc3-c3c(ssc3=S)C2(C)C)s1
inactive: [7] 0.0437 | [8] 0.1 | [13] 0.106 | [14] 0.371

COc1c(C(=O)O)ccc2c1CCC(C)(C)O2
inactive: [7] 0.0873 | [8] 0.0519 | [13] 0.206 | [14] -0.0164

Cc1ccncc1Nc1ncccc1C(=O)Nc1ccc(C2(C#N)CCCC2)cc1
inactive: [5] 0.0267 | [6] 0.0194 | [9] 0.0111 | [10] -0.0325 | [11] -0.00588 | [12] -0.00768 | [15] -0.00204 | [16] -0.0249 | [17] 0.00934 | [18] -0.0211 | [19] -0.0197 | [20] 0.0222

O=c1cc(-c2ccc(O)cc2)oc2cc(O[C@@H]3O[C@H](CO)[C@@H](O)[C@H](O)[C@H]3O)cc(O)c12
inactive: [7] 0.0644 | [8] -0.097 | [13] 0.187 | [14] 0.117

Cc1c(NC(C)C)c(=O)n(-c2ccccc2)n1C
inactive: [7] 0.0695 | [8] 0.096 | [13] 0.0785 | [14] -0.00131

NS(=O)(=O)Cc1noc2ccccc12
inactive: [5] 0.0112 | [6] 0.0061 | [9] 0.00766 | [10] -0.00478 | [11] -0.0264 | [12] -0.00155 | [15] 0.0125 | [16] 0.0198 | [17] -0.0142 | [18] 0.024 | [19] -0.0716 | [20] -0.0114

COc1ccc([C@@H]2Sc3ccccc3N(CCN(C)C)C(=O)[C@@H]2OC(C)=O)cc1
inactive: [7] 0.0386 | [8] 0.0682 | [1] 0.106 | [2] 0.0709 | [13] 0.0866 | [14] 0.0597 | [3] 0.0713 | [4] 0.103
